Here are results for 24 molecules from patent US20230159453A1 (COCRYSTAL PHARMA, INC., priority 2020, published 2023).

Molecules are shown by their SMILES.

In this test the target is Noro protease (Norovirus, UniProt Q83883). As to the kind of experiment: Norovirus protease inhibition assay (Noro-Norwalk FRET protease assay). The following applies: IC50 (μM), peptide substrate 10 μM, 90 minutes at 37° C., compounds 200 μM to 10.2 nM.
The IC50 is the concentration that inhibits the measured activity by half. A lower IC50 goes with greater potency. Regarding `CC(C)(C1CCCCC1)C(NC(=O)OCc1ccccc1)C(=O)N[C@H](C=O)C[C@@H]1CCNC1=O` (stereo partly drawn) [Compound C140, Benzyl (3-cyclohexyl-3-methyl-1-oxo-1-(((S)-1-oxo-3-((S)-2-oxopyrrolidin-3-yl)propan-2-yl)amino)butan-2-yl)carbamate], 76 µM corresponded to half-maximal inhibition (IC50). Under `CC(=O)N1CCC2(CC1)CC(CC(C=O)NC(=O)[C@H](CC1CCCCC1)NC(=O)c1cc3cc(Cl)ccc3[nH]1)C(=O)N2` (stereo partly drawn) [Compound C141, N-((2S)-1-((1-(8-acetyl-2-oxo-1,8-diazaspiro[4.5]decan-3-yl)-3-oxopropan-2-yl)amino)-3-cyclohexyl-1-oxopropan-2-yl)-5-chloro-1H-indole-2-carboxamide] stands 9.6 µM. Under `CC(C)(c1cccc(Cl)c1)C(OC(=O)N[C@@H](CC1CCCCC1)C(=O)N[C@H](C=O)C[C@@H]1CCNC1=O)c1ccc(Cl)cc1` (stereo partly drawn) [Compound C143, 2-(3-Chlorophenyl)-1-(4-chlorophenyl)-2-methylpropyl ((S)-3-cyclohexyl-1-oxo-1-(((S)-1-oxo-3-((S)-2-oxopyrrolidin-3-yl)propan-2-yl)amino)propan-2-yl) carbamate] stands 3.7 µM. `CC(C)(c1cccc(Cl)c1)C(OC(=O)N[C@@H](CC1CCCCC1)C(=O)N[C@@H](C[C@@H]1CCNC1=O)C(=O)C(=O)NC1CC1)c1ccc(F)cc1` (stereo partly drawn) [Compound C144, 2-(3-Chlorophenyl)-1-(4-fluorophenyl)-2-methylpropyl ((S)-3-cyclohexyl-1-(((S)-4-(cyclopropylamino)-3,4-dioxo-1-((S)-2-oxopyrrolidin-3-yl)butan-2-yl)amino)-1-oxopropan-2-yl) carbamate]: 140 µM corresponded to half-maximal inhibition (IC50). In turn, `CC(C)(c1cccc(Cl)c1)C(OC(=O)N[C@@H](CC1CCCCC1)C(=O)N[C@@H](C[C@@H]1CCNC1=O)C(=O)C(=O)NC1CC1)c1ccc(Cl)cc1` (stereo partly drawn) [Compound C145, 2-(3-Chlorophenyl)-1-(4-chlorophenyl)-2-methylpropyl ((S)-3-cyclohexyl-1-(((S)-4-(cyclopropylamino)-3,4-dioxo-1-((S)-2-oxopyrrolidin-3-yl)butan-2-yl)amino)-1-oxopropan-2-yl) carbamate] returned an IC50 of over 200 µM. `O=C(N[C@@H](Cc1ccccc1)C(=O)N[C@@H](C[C@@H]1CCNC1=O)C(=O)C(=O)NC1CC1)OC1CCCC1Cc1cccc(Cl)c1` (stereo partly drawn) [Compound C146] came in with an IC50 of over 200 µM. Under `CC(C)C[C@H](NC(=O)OC(Cc1cccc(Cl)c1)c1ccccc1)C(=O)N[C@@H](C[C@@H]1CCNC1=O)C(=O)C(=O)NC1CC1` (stereo partly drawn) [Compound C147, 2-(3-Chlorophenyl)-1-phenylethyl ((S)-1-(((S)-4-(cyclopropylamino)-3,4-dioxo-1-((S)-2-oxopyrrolidin-3-yl)butan-2-yl)amino)-4-methyl-1-oxopentan-2-yl) carbamate] stands over 200 µM; under `CC(C)(c1cccc(Cl)c1)C(OC(=O)N[C@@H](CC1CCCCC1)C(=O)N[C@@H](C[C@@H]1CCNC1=O)C(=O)C(=O)NC1CC1)c1ccccc1` (stereo partly drawn) [Compound C148, 2-(3-Chlorophenyl)-2-methyl-1-phenylpropyl ((S)-3-cyclohexyl-1-(((S)-4-(cyclopropylamino)-3,4-dioxo-1-((S)-2-oxopyrrolidin-3-yl)butan-2-yl)amino)-1-oxopropan-2-yl)carbamate], 58.7 µM.

With `O=C(N[C@@H](CC1CCCCC1)C(=O)N[C@@H](C[C@H]1CC2(CCCCC2)NC1=O)C(=O)C(=O)NC1CC1)OCc1cccc(Cl)c1` [Compound C149, 3-Chlorobenzyl ((S)-3-cyclohexyl-1-(((S)-4-(cyclopropylamino)-3,4-dioxo-1-((S)-2-oxo-1-azaspiro[4.5]decan-3-yl)butan-2-yl)amino)-1-oxopropan-2-yl)carbamate], the IC50 is over 200 µM. Under `CC(C)(c1cccc(Cl)c1)C(OC(=O)N[C@@H](CC1CCCCC1)C(=O)N[C@@H](C[C@@H]1CCNC1=O)C(=O)C(=O)N1CCCC1)c1ccc2ccccc2c1` (stereo partly drawn) [Compound C150, 2-(3-Chlorophenyl)-2-methyl-1-(naphthalen-2-yl)propyl ((S)-3-cyclohexyl-1-(((S)-3,4-dioxo-1-((S)-2-oxopyrrolidin-3-yl)-4-(pyrrolidin-1-yl)butan-2-yl)amino)-1-oxopropan-2-yl)carbamate] stands over 200 µM; under `O=C(N[C@@H](CC1CCCCC1)C(=O)N[C@@H](C[C@@H]1CCNC1=O)C(=O)C(=O)NC1CC1)OC1CCCC1Cc1cccc(Cl)c1` (stereo partly drawn) [Compound C151, 2-(3-Chlorobenzyl)cyclopentyl ((S)-3-cyclohexyl-1-(((S)-4-(cyclopropylamino)-3,4-dioxo-1-((S)-2-oxopyrrolidin-3-yl)butan-2-yl)amino)-1-oxopropan-2-yl)carbamate], 131 µM; under `CC(C)C[C@H](NC(=O)OC1CCCC1Cc1cccc(Cl)c1)C(=O)N[C@H](C=O)C[C@@H]1CCNC1=O` (stereo partly drawn) [Compound C152, 2-(3-chlorobenzyl)cyclopentyl ((S)-4-methyl-1-oxo-1-(((S)-1-oxo-3-((S)-2-oxopyrrolidin-3-yl)propan-2-yl)amino)pentan-2-yl)carbamate], 2.9 µM. For `O=C(N[C@@H](CC1CCCCC1)C(=O)NC(CC1CC2(CCCCC2)NC1=O)C(=O)C(=O)NC1CC1)OC(Cc1cccc(Cl)c1)c1ccccc1` (stereo partly drawn) [Compound C153, 2-(3-Chlorophenyl)-1-phenylethyl ((2S)-3-cyclohexyl-1-((4-(cyclopropylamino)-3,4-dioxo-1-(2-oxo-1-azaspiro[4.5]decan-3-yl)butan-2-yl)amino)-1-oxopropan-2-yl)carbamate], the IC50 is over 200 µM. `O=C(N[C@@H](CC1CCCCC1)C(=O)N[C@@H](C[C@@H]1CCNC1=O)C(=O)C(=O)NC1CC1)OCc1cccc(Cl)c1` [Compound C154, 3-Chlorobenzyl ((S)-3-cyclohexyl-1-(((S)-4-(cyclopropylamino)-3,4-dioxo-1-((S)-2-oxopyrrolidin-3-yl)butan-2-yl)amino)-1-oxopropan-2-yl)carbamate] registered an IC50 of 76.1 µM.

In the case of `CC1(C)CC(CC(NC(=O)[C@H](CC2CCCCC2)NC(=O)OC(Cc2cccc(Cl)c2)c2ccccc2)C(=O)C(=O)NC2CC2)C(=O)N1` (stereo partly drawn) [Compound C155, 2-(3-Chlorophenyl)-1-phenylethyl ((2S)-3-cyclohexyl-1-((4-(cyclopropylamino)-1-(5,5-dimethyl-2-oxopyrrolidin-3-yl)-3,4-dioxobutan-2-yl)amino)-1-oxopropan-2-yl) carbamate], the IC50 stood at 86.4 µM. Under `CC1(C)CC(C[C@@H](C=O)NC(=O)[C@H](CC2CCCCC2)NC(=O)OC2CCCC2Cc2cccc(Cl)c2)C(=O)N1` (stereo partly drawn) [Compound C156, 2-(3-Chlorobenzyl)cyclopentyl ((2S)-3-cyclohexyl-1-((1-(5,5-dimethyl-2-oxopyrrolidin-3-yl)-3-oxopropan-2-yl)amino)-1-oxopropan-2-yl)carbamate] stands 6.1 µM.

For the molecule `CCCC[C@H](NC(=O)OC(c1ccccc1)C(C)(C)c1cccc(Cl)c1)C(=O)N[C@H](C=O)C[C@@H]1CCNC1=O` (stereo partly drawn) [Compound C157, 2-(3-Chlorophenyl)-2-methyl-1-phenylpropyl ((S)-1-oxo-1-(((S)-1-oxo-3-((S)-2-oxopyrrolidin-3-yl)propan-2-yl)amino)hexan-2-yl) carbamate], inhibition was half-maximal at 3.1 µM (IC50).

In turn, `O=C(N[C@@H](CC1CCCCC1)C(=O)N[C@@H](C[C@@H]1CCNC1=O)C(=O)C(=O)NC1CC1)OC(Cc1cccc(Cl)c1)c1ccccc1` (stereo partly drawn) [Compound C158] came in with a 50% inhibitory concentration (IC50) of 100 µM. Under `O=C(N[C@@H](CC1CCCCC1)C(=O)N[C@@H](C[C@@H]1CC2(CCCC2)NC1=O)C(=O)C(=O)NC1CC1)OC1CCCC1Cc1cccc(Cl)c1` (stereo partly drawn) [Compound C159, 2-(3-Chlorobenzyl)cyclopentyl ((2S)-3-cyclohexyl-1-((4-(cyclopropylamino)-3,4-dioxo-1-(2-oxo-1-azaspiro[4.4]nonan-3-yl)butan-2-yl)amino)-1-oxopropan-2-yl)carbamate] stands 75.3 µM; under `CC(C)(c1cccc(Cl)c1)C(OC(=O)N[C@@H](CC1CCCCC1)C(=O)N[C@H](C=O)C[C@@H]1CCNC1=O)c1ccccc1Cl` (stereo partly drawn) [Compound C160, 1-(2-chlorophenyl)-2-(3-chlorophenyl)-2-methylpropyl ((S)-3-cyclohexyl-1-oxo-1-(((S)-1-oxo-3-((S)-2-oxopyrrolidin-3-yl)propan-2-yl)amino)propan-2-yl) carbamate], 4.3 µM; under `COc1cccc2[nH]c(C(=O)N[C@@H](CC(C)C)C(=O)N[C@@H](C[C@@H]3CCNC3=O)C(=O)COP(=O)(O)O)cc12` [Compound C161, (S)-3-((S)-2-(4-methoxy-1H-indole-2-carboxamido)-4-methylpentanamido)-2-oxo-4-((S)-2-oxopyrrolidin-3-yl)butyl dihydrogen phosphate], over 200 µM.

Turning to `CC1(C)CC(C[C@@H](C=O)NC(=O)[C@H](CC2CCCCC2)NC(=O)OC(Cc2cccc(Cl)c2)c2cccc(Cl)c2)C(=O)N1` (stereo partly drawn) [Compound C162, 1,2-Bis(3-Chlorophenyl)ethyl ((2S)-3-cyclohexyl-1-((1-(5,5-dimethyl-2-oxopyrrolidin-3-yl)-3-oxopropan-2-yl)amino)-1-oxopropan-2-yl)carbamate], the IC50 is 8.3 µM. `CC(C)C[C@H](NC(=O)OC(c1ccccc1)C(C)(C)c1cccc(Cl)c1)C(=O)N[C@@H](CC1CC(C)(C)NC1=O)C(=O)C(=O)NC1CC1` (stereo partly drawn) [Compound C163, 2-(3-Chlorophenyl)-2-methyl-1-phenylpropyl ((2S)-1-((4-(cyclopropylamino)-1-(5,5-dimethyl-2-oxopyrrolidin-3-yl)-3,4-dioxobutan-2-yl)amino)-4-methyl-1-oxopentan-2-yl) carbamate] registered an IC50 of 62.8 µM. As to `CCCC[C@H](NC(=O)OC(c1ccccc1)C(C)(C)c1cccc(Cl)c1)C(=O)N[C@@H](CC1CCNC1=O)C(=O)C(N)=O` (stereo partly drawn) [Compound C164, 2-(3-Chlorophenyl)-2-methyl-1-phenylpropyl ((S)-1-(((S)-4-amino-3,4-dioxo-1-((S)-2-oxopyrrolidin-3-yl)butan-2-yl)amino)-1-oxohexan-2-yl) carbamate], the IC50 was 143 µM.
